Laboratory results reported in the RNAGym collection of RNA variant scans (doi:10.7554/elife.90254).
Read counts are not given, so values of variants with three or more changes are uncertain.

B1: LINE1-mini (parent)
chain: GGCAGAGCUCAACACAGCGUGGCAAAGUGGCUGUGGCUAGACUGCC

Variants of: B1
Assay: self-cleavage, relative activity (ratio to wild type); higher = more cleavage; in vitro, sequencing; the parent is a self-cleaving ribozyme

Question: For GGCAGAGCUAACUACAGCGUGGCAAAGUGCCUGUGGCUAGACUGCC [C10A A12C C13U G30C], which self-cleavage is on record?
Answer: 0

Question: Which self-cleavage does the source give for GGCAGAGCUAAGCACAGCGUGGAAAAGUGGCUGUGGCUAGACUGCC [C10A A12G C23A] here?
Answer: 0.02

Question: For GGCAGAGCUAAUCACAGCGUGGCAAAGUGUUUGUGGCUAGACUGCC [C10A A12U G30U C31U], which self-cleavage is on record?
Answer: 0.01

Question: Which self-cleavage does the source give for GGCAGAGCUACACACAGCGUGGCAAAGUGACUGUGGCUAGACUGUC [C10A A11C G30A C45U] here?
Answer: 0.04

Question: Which self-cleavage does the source give for GGCAGAGCUAAACACCGCGUGGCAAAGUGGCUGUGGCUAGACUGCU [C10A A16C C46U] here?
Answer: 0.02

Question: Which self-cleavage does the source give for GGCAGAGCUAACCACAGCGUGUCAAAGUGGCUGUGGCUAGAAUGCC [C10A A12C G22U C42A] here?
Answer: 0.02

Question: For GGCAGAGCGCAACACAGCGUGGCAAAGUGGCUGCGGCUAGACUGCG [U9G U34C C46G], which self-cleavage is on record?
Answer: 0.04

Question: For GGCAGAGCUAACCACAGCGUGGCAAAGUCGGUGUGGCUAGACUGCC [C10A A12C G29C C31G], which self-cleavage is on record?
Answer: 0

Question: With GGCAGAGCUACGCACAGCGUGGGAAAGUGGCUGUGGCUAGACUGCC [C10A A11C A12G C23G] as the variant, how does the self-cleavage read?
Answer: 0.01

Question: With GGCAGAGCUAAGCACAGUGUGGCAAAGUGGCUGUGGCUAGACUGGC [C10A A12G C18U C45G] as the variant, how does the self-cleavage read?
Answer: 0.01

Question: Which self-cleavage does the source give for GGCAGAGCUAAACACGGCUUGGCAAAGUGGCUGAGGCUAGACUGCC [C10A A16G G19U U34A] here?
Answer: 0.03

Question: For GGCAGAGCUAAACGCAGCGUGGCAGAGUGGCUGUGGCUAGACUGCC [C10A A14G A25G], which self-cleavage is on record?
Answer: 0.03

Question: For GGCAGAGCUAAACCCAGCGUGGCAAAGUGGCUGUGGCUAGAAUGCC [C10A A14C C42A], which self-cleavage is on record?
Answer: 0.01

Question: For GGCAGAGCUAAGCACAGCGUGGCAAAGUUGCUGUUGCUUGACUGCC [C10A A12G G29U G35U A39U], which self-cleavage is on record?
Answer: 0.01

Question: For GGCAGAGCUAGACACAGCGUGGCAAAGUGGCUGUGCCUAGACUGCC [C10A A11G G36C], which self-cleavage is on record?
Answer: 0.02

Question: Which self-cleavage does the source give for GGCAGAGCGCAACACAGCGUGGCAAAGUGGCUGGGGUUAGACUGCC [U9G U34G C37U] here?
Answer: 0.11

Question: Which self-cleavage does the source give for GGCAGAGCUACUCACAGCGUGGCAAAGUGGCUGUGUCUAGACUGCC [C10A A11C A12U G36U] here?
Answer: 0.09

Question: Which self-cleavage does the source give for GGCAGAGCUAAACUCAGCGUGUCAAAGUCGCUGUGGCUAGACUGCC [C10A A14U G22U G29C] here?
Answer: 0.02

Question: Which self-cleavage does the source give for GGCAGAGCUAAACUCAGCGUGGCAAAGUGCCUGUGGCUAGACUGCA [C10A A14U G30C C46A] here?
Answer: 0.01

Question: For GGCAGAGCUAAACACCGCGAGGCAAAGUGGCUGUGGCUAGUCUGCC [C10A A16C U20A A41U], which self-cleavage is on record?
Answer: 0.03

Question: For GGCAGAGCUAUACACAGCGUGCCAAAGUGGCUGUGGCUAGACUGUC [C10A A11U G22C C45U], which self-cleavage is on record?
Answer: 0

Question: With GGCAGAGCUAAACUCAGCGUGGCAAAGUGGCUGUGGCUAUACUGCC [C10A A14U G40U] as the variant, how does the self-cleavage read?
Answer: 0.01

Question: For GGCAGAGCUAAACUCCGCGUGGCAAAGGGGCUGUGGCUAGACUGCC [C10A A14U A16C U28G], which self-cleavage is on record?
Answer: 0.01

Question: With GGCAGAGCUACACACAGCGUUGCAAAGUGGCAUAGGCUAGACUGCC [C10A A11C G21U U32A G33U U34A] as the variant, how does the self-cleavage read?
Answer: 0.01

Question: Which self-cleavage does the source give for GGCAGAGCUAGACACAGCGUGGUAAAGUGGCUGUGGCUAGACUGCC [C10A A11G C23U] here?
Answer: 0.01

Question: Which self-cleavage does the source give for GGCAGAGCUAGACACAGCGUGGCAAAGUCGCUGUGGCUAGACUUCC [C10A A11G G29C G44U] here?
Answer: 0.01

Question: With GGCAGAGCUAAACACGGCGUGUAAAAGUGGUUGUGGCUAGACUGCC [C10A A16G G22U C23A C31U] as the variant, how does the self-cleavage read?
Answer: 0.02

Question: With GGCAGAGCUAAACACGGCGUGGCACAGUGGCUGUGGCUAGACUGCC [C10A A16G A25C] as the variant, how does the self-cleavage read?
Answer: 0.02

Question: For GGCAGAGCUAACCCCAGCGUGGCAAAGUGGCUAUGGCUAGACUGCC [C10A A12C A14C G33A], which self-cleavage is on record?
Answer: 0.01

Question: With GGCAGAGCUAUACACUGCGUGUCAAGGUGGCUGUGGCUACACUGCC [C10A A11U A16U G22U A26G G40C] as the variant, how does the self-cleavage read?
Answer: 0.01

Question: Which self-cleavage does the source give for GGCAGAGCUAAGCACUGCGUGGCAAAGUGGCUGUGGCUAGACUGCC [C10A A12G A16U] here?
Answer: 0.02

Question: For GGCAGAGCUAAACUAAGCGUCGCAAAGUGGCUGCGGCUAGACUGCA [C10A A14U C15A G21C U34C C46A], which self-cleavage is on record?
Answer: 0.02

Question: For GGCAGAGCUACACACAGCGUGGCAAAGUGGCUGUGGCUAGAUUGCC [C10A A11C C42U], which self-cleavage is on record?
Answer: 0.04

Question: Which self-cleavage does the source give for GGCAGAGCUAUACACAGCGUGACAAAGUGGCUGGGGCUAGAGUGCC [C10A A11U G22A U34G C42G] here?
Answer: 0.01

Question: With GGCAGAGCGCAACACAGCGUGGCAAAGUGGCUGUGGCUAGACAGGC [U9G U43A C45G] as the variant, how does the self-cleavage read?
Answer: 0.81

Question: For GGCAGAGCUAAGCACAGCGUGGCAAAGUGGCCGGUCCUAGACUGCC [C10A A12G U32C U34G G35U G36C], which self-cleavage is on record?
Answer: 0.01

Question: For GGCAGAGCUACACACAGCGUGGUAAAGUGGCUGAGGCUAGACUGCC [C10A A11C C23U U34A], which self-cleavage is on record?
Answer: 0

Question: Which self-cleavage does the source give for GGCAGAGCUAAACCCAGCGUGGCACAGUGGCUGUGGCUAGACUGCC [C10A A14C A25C] here?
Answer: 0.01

Question: With GGCAGAGCUAAACACUGCGUGGGAAAGUGGCUGUGGCUAUAAUGCC [C10A A16U C23G G40U C42A] as the variant, how does the self-cleavage read?
Answer: 0.01

Question: For GGCAGAGCUAAACUCAGCGCGGCAAAGUGGCUGUUACUAGAAUGCC [C10A A14U U20C G35U G36A C42A], which self-cleavage is on record?
Answer: 0.01

Question: With GGCAGAGCUAAACGCAGCGUGGCAAAGGGGCUGUGGCUAGACUGAC [C10A A14G U28G C45A] as the variant, how does the self-cleavage read?
Answer: 0.03

Question: With GGCAGAGCUAAACACGGCGUGGCAAAGUGGCUCUGGCUAGACUGCC [C10A A16G G33C] as the variant, how does the self-cleavage read?
Answer: 0.01

Question: Which self-cleavage does the source give for GGCAGAGCUAAGCAGAGCGUGGAAAAGUGGCUGUGGCUAGACAGCC [C10A A12G C15G C23A U43A] here?
Answer: 0

Question: For GGCAGAGCUAAACACCGCGUGGCAAAGUGGCAUUGGCUAGACUGCC [C10A A16C U32A G33U], which self-cleavage is on record?
Answer: 0

Question: Which self-cleavage does the source give for GGCAGAGCUAAUCACAGCGUGGCAAAGUCGCUGUGGCUGGACUGCA [C10A A12U G29C A39G C46A] here?
Answer: 0.02

Question: For GGCAGAGCUAAACACUGCGUGGCUAAGUGUCUGUGGCUAGACUGCA [C10A A16U A24U G30U C46A], which self-cleavage is on record?
Answer: 0.02

Question: With GGCAGAGCUAAACUCAGCGCGGCAAAGUGGCUGUCGCUAGAAUGCC [C10A A14U U20C G35C C42A] as the variant, how does the self-cleavage read?
Answer: 0

Question: With GGCAGAGCUAAACGCAGCGUGGCAAAGUGGCUGUGGCUGGACUGCC [C10A A14G A39G] as the variant, how does the self-cleavage read?
Answer: 0.01

Question: Which self-cleavage does the source give for GGCAGAGCUAAACCCAGCGUGGCAAAGUGGCUGUGGCUAGCCUGCC [C10A A14C A41C] here?
Answer: 0.04

Question: Which self-cleavage does the source give for GGCAGAGCUAAGCACAGCGUGGCAGAUUGGCUGUGGCUUAACGGCC [C10A A12G A25G G27U A39U G40A U43G] here?
Answer: 0

Question: For GGCAGAGCUAAACUCAUUCUGGCAAAGUUGCAGUGGCUAGACUGCC [C10A A14U G17U C18U G19C G29U U32A], which self-cleavage is on record?
Answer: 0.01

Question: For GGCAGAGCUAACCACAGCGUGGCAAAGUUGCUGUGGCUAGACUGCC [C10A A12C G29U], which self-cleavage is on record?
Answer: 0.03

Question: Which self-cleavage does the source give for GGCAGAGCUAAACUCAGGGUUGCAAAUUGUCUGUGGCUAGACUGCC [C10A A14U C18G G21U G27U G30U] here?
Answer: 0.04

Question: Which self-cleavage does the source give for GGCAGAGCUAACCAUCGCGUGGCAAAGUGGCUGUGGCUAGACUGCC [C10A A12C C15U A16C] here?
Answer: 0.04

Question: With GGCAGAGCUAAACGCAGCGUCGCAAACUGGCUGUGGCCAGACUGCC [C10A A14G G21C G27C U38C] as the variant, how does the self-cleavage read?
Answer: 0

Question: For GGCAGAGCUAAACACCGCGUGGCAAAGUGGAUGUGGCUAGACUGCC [C10A A16C C31A], which self-cleavage is on record?
Answer: 0.02
